According to PubChem BioAssay AID602310 (National Center for Advancing Translational Sciences (NCATS), 2012):
Several values for one entry are separate records, joined by “and”; a condition that tells them apart may be missing. Equal entries are not always repeated. Among all 410,000 compounds or so, about 310 (0.076%) were called active. Inconclusive results, whose numbers are uncertain, are shown with a selection of clear calls. The call rests on the fitted dose curve; in most records, active means well fitted curve in the direction sought with a large enough effect; inconclusive means small, poorly fitted or top-dose-only effect; inactive means flat fitted curve, though single readings scatter. A potency beside an inconclusive call is a rough fit, not a confirmed value.

biological target: DNA dC->dU-editing enzyme APOBEC-3G (Homo sapiens) (UniProt Q9HC16); test: qHTS for Inhibitors of Vif-A3G Interactions: qHTS; settings: HeLa A3G-eYFP + Vif (tagged APOBEC3G with the HIV-1 protein that degrades it), YFP fluorescence, overnight; series mostly up to 46.1 µM; further: nearly all actives have a fitted effect of over 60% in size
Sequence of UniProt Q9HC16 (Q9HC16 whole entry, looked up): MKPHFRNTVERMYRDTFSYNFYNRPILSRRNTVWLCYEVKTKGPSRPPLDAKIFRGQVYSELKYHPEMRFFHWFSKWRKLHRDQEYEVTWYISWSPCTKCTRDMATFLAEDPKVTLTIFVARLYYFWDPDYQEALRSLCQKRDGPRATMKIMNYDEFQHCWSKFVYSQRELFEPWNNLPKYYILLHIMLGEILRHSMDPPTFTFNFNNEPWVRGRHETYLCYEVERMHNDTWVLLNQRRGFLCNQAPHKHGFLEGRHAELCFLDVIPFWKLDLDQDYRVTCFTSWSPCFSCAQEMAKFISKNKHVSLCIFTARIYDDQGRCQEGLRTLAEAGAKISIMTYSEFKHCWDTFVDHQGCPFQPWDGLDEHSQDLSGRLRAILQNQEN
In short: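 HeLa cells stably expressing Vif and C-terminally eYFP-tagged A3G, seeded overnight at 37 deg C, then exposed to compound by pintool overnight at 37 deg C. Rise in yellow fluorescence (Ex 488/Em 500-530, Acumen) marks blocked Vif-driven A3G degradation.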
Potency means the concentration at half of the fitted maximal effect; tags describe the fitted curve by direction and shape.

SMILES	Potency
Cc1cc(C)c(/C=C2\C(=O)Nc3ccccc32)[nH]1	inconclusive: 7.08 µM [inhibitor, partial curve]
O=C(CSc1nc(-c2ccccc2)cs1)NCCCN1CCCC1=O	inactive
Cc1ccc(SC2=C(Sc3ccc(C)cc3)C(=O)c3ccccc3C2=O)cc1	inactive
CC(=O)Nc1ccc(N2C(=O)c3cccc4c(O)ccc(c34)C2=O)cc1	inactive
CC1CCCN(c2nc(-c3cccnc3)nc3scc(-c4ccccc4)c23)C1 (centres undefined)	inactive
CCCCN(CC)CCCNC(=O)c1cn(CC)c2ccc(S(=O)(=O)N3CCOCC3)cc2c1=O	inactive
Cc1ccc(NC(=O)CSc2nc(-c3ccco3)cc(C(F)(F)F)n2)cc1C	inconclusive: 2.24 µM [inhibitor, partial curve, poor fit] and inconclusive: 1.58 µM [inhibitor, full curve, poor fit]
COc1ccc(C2=Nn3c(nnc3-c3ccc(OC)cc3)SC2)cc1	inconclusive: 0.891 µM [inhibitor, full curve, poor fit]
COc1ccc(OC)c(NS(=O)(=O)c2ccc(Br)s2)c1	inconclusive: 4.47 µM [inhibitor, full curve]
Cc1cc(C)c(S(=O)(=O)Oc2ccccc2[N+](=O)[O-])c(C)c1	inconclusive: 10 µM [inhibitor, partial curve]
CN(C)CCOC1(Cc2ccc(F)cc2)CCC(C(C)(C)C)CC1 (centres undefined)	inactive
Cn1cc(C(=O)C(=O)N2CCCc3ccccc32)c2ccccc21	inconclusive: 6.31 µM [inhibitor, partial curve]
O=C(Nc1cccnc1)c1ccc(Cl)c([N+](=O)[O-])c1	inconclusive: 35.5 µM [inhibitor, partial curve, poor fit]
COc1ccc(C2=Nn3c(nnc3-c3ccccc3Cl)SC2)cc1OC1CCOC1 (centres undefined)	inconclusive: 5.62 µM [inhibitor, full curve]
N#CC1C=Cc2c(ccc3ccccc23)N1C(=O)c1ccccc1 (centres undefined)	inconclusive: 0.562 µM [inhibitor, full curve, poor fit]
O=c1c2ccccc2nnn1Cc1ccccc1Cl	inactive
Cc1cccc2cc3c(N)c(C(=O)N4CCCc5ccccc54)sc3nc12	inconclusive: 15.8 µM [inhibitor, partial curve, poor fit]
CCOc1ccc2ccccc2c1C(=O)N1CCN(c2ccccc2)CC1	inconclusive: 3.16 µM [inhibitor, full curve, poor fit]
CN1CCc2c(sc3c2C(=O)NC(c2ccc(OC(=O)c4ccc(Cl)cc4)cc2)N3)C1 (centres undefined)	inconclusive: 35.5 µM [inhibitor, single point]
